According to the RNAGym collection of RNA variant scans (doi:10.1093/nar/gkz1192):
Read counts are not given, so values of variants with three or more changes are uncertain.

B1: CPEB3 Ribozyme (parent)
chain: UAACAGGGGGCCACAGCAGAAGCGUUCACGUCGCAGCCCCUGUCAGAUUCUGGUGAAUCUGCGAAUUCUGCUGUAUAUCUC

Variants of: B1
Assay: self-cleavage, relative activity (ratio to wild type); higher = more cleavage; in vitro, sequencing
Method in brief: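 CPEB3 self-cleaving ribozyme mutant libraries were made by rounds of error-prone PCR, barcoded, and transcribed in vitro with T7 RNA polymerase for 5 hours at 37°C. Cleavage occurred during transcription and a 15 min DNase I step before EDTA stop. RNAs were reverse transcribed with template switching and Illumina-sequenced, with DNA sequencing mapping barcodes to variants. Relative activity is the variant's cleaved/total read fraction divided by wild type's (minimum 5 reads), averaged across three batches.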
UAUCAGGGGGCCACGGUAGAAGCGUUCACGUCGCAGCCCCUGUCAGAUUCUGGUGAAUCCGCGAAUUCUGCUGUAUACCUC showed a self-cleavage of 0.23. In the case of UAUCAGGGGGCCACGGCAGAAGCGUUCACGUGGCAGCCCCUGUCAGAUACUGGUGAAUCAGCGAAUUCUGCUGUAUAUCUC, the self-cleavage is reported as 0.25. In the case of UAUCAGGGGGCCACGGCAGAAGCGUUCACGUCGCAGCGCCUGUCAGAUUCUGGUGAAUCUGCGAAUACUGCUGUAUAUCUC, the self-cleavage is reported as 0.24. Variant UAUCAGGGGGCCACGGCAGAAGCGUUCACGUCACAGCCCCCGUCAGAUUCUGGCGAAUCUGCGAAUUCUGCCGUAUAUCUC has a self-cleavage of 0.43. UAUCAGGGGGCCACGGCAGAAGCGUUCACGUCGCAGCCCCUGUCAGAUUCUGGUGAAUCUGCAAACUCUGCGGUAUAUCUC gave a self-cleavage of 0.42. Variant UAUCAGGGGGCCACGGCAGAAGCGAUCACGUCGCAGCCCCUGUCAGAUUCUGGUGAAUCUGCGAAUUCUGCUGUAUAUCUC has a self-cleavage of 0.29. UAUCAGGGGGCCACGGCAGAAGCGCUCACGUCGCAGCCCCUGUCAGAUUCUGGCGAAUCUGCGAAUUCUGCUGUAUAUCUC showed a self-cleavage of 0.09. Work on UAUCAGGGGGCCACGGCAGAAGCGUCCACGGCGCAGCCCCUGACAGAUUCUGGUGAAUCUGCGAAUCCUGCUGUAUAUCUC yielded a self-cleavage of 0.07. UAUCAGGGGGCCACGGCAGAAGCGUUCACGCCGCAGCCCCUGUCAGAUUCUGGUGAAUCUGCGAAUUCUGCUGUAUAUCUC gave a self-cleavage of 0.26. Variant UAUCAGGGGGCCACGGCAGAAGCGUUCACGCCGCAGCCCCUGGCUGAUUCUGGUGUAUCUGCGAAUUCUGCUGUAUAUCUC has a self-cleavage of 0.15. For UAUCAGGGGGCCACGGCAGAAGCGUUCACGCCGCAGCCCCUGUCAGAUUCUGGUGAAUCUGCGAAUUCUGCUGUAUAUCCC, the self-cleavage was 0.8. In the case of UAUCAGGGGGCCACGGCAGAAGCGUUCACGUCGCAGCCCCUGUCAGAUUCUGGUGAAUCUGCGAAUCCUGCUUUAUAUCUC, the self-cleavage is reported as 0.17. UAUCAGGGGGCCACGGCAGAAGCGUUCACGUCGCAGCCCCUGUCAGAUUCUGGUGAAUCUGCGAAUUCGGCUGUAUAUCUC showed a self-cleavage of 0.48. UAUCAGGGGGCCACGGCAGAAGCGUUCACGUCGCAGCCCCUGUCAGAUUCUGGUGAAUCUGCGAAUUCUGCCGUAUAUCUC showed a self-cleavage of 1.2. UAUCAGGGGGCCACGGCAGAAGCGUUCACGUCGCAGCCCCUGUCAGAUUCUGGUGAAUCUGCGAAUUCUGCUGUAAAUCUC showed a self-cleavage of 0.69. Variant UAUCAGGGGGCCACGGCAGAAGCGUUCACGUCGCAGCCCCUGUCAGAUUCUGGUGAAUCUGCGAAUUCUGCUGUACAUCUC has a self-cleavage of 1.06. Work on UAUCAGGGGGCCACUGCCGAAGCGUUCACGUCGCAGCCCCUGUCAGAUUCUGCUGUAUCUGCGAAUUCUGCUGGUUAUCUC yielded a self-cleavage of 0.15. Variant UAUCAGGGGGCCACUGCGGAAGCGUUCACGUCGCAGCCCCUGUCAGAUUCUGGUGAAUCUGCGAAUUCUGCUGUAUAUCUC has a self-cleavage of 0.39. Work on UAUCAGGGGGCCACUGCAGAAGCGUUCCCGUCGCAGCCCCUGUCAGACUCUGGUGAAUCUGCGAAUUCUGCUGUAUAUCUC yielded a self-cleavage of 0.27. Variant UAUCAGGGGGCCACUGCAGAAGCGUUCACGUCGCAGCCCCUGUCAGAUUCUGGUGAAUCUGCGUAUUCUGCUGUAUAUCUC has a self-cleavage of 0.24. UAUCAGGGGGCCACUGCAGAAGCGUUUUCGUCGCAGCCCCUGUCAGAUUCUGGUGAAACUGCGAAUUCAGCUGUACAUCUC gave a self-cleavage of 0.12. UAUCAGGGGGCCACUGCAGAAGCGUUUACGUCGCAGCCCCUGUCAGGUUCUGGUGAGUCUGCGAAUCCUGCCGUAUAUCUC showed a self-cleavage of 0.1. UAUCAGGGGGCCACUGCAGAAGCGUUCACGUCGCAGCACCUGUCAGAUUCUGGUGAAUCUGCGAAUUCUGCCGUAUAUCUC showed a self-cleavage of 0.15. Variant UAUCAGGGGGCCACUGCAGAAGCGCUCACGUCGCAGCCCCUGUCAGAUUCUGGUGAAUCCGCGAGUUCUGCUGCAUAACUC has a self-cleavage of 0.1. With UAUCAGGGGGCCACUGCAGAAGCGUUCACGACGCAGCCCCUGUCAGAUUCUGGUGAAUCUGCGAAUUCUGCUGUAUAUCUC the self-cleavage was 0.75. In the case of UAUCAGGGGGCCACUGCAGAAGCGUUCACGCCGCAGCCCCUGCCAGAUUCUGGUGAAUCUGCGAAUUCUGCUGUAUAUCUC, the self-cleavage is reported as 0.62. Variant UAUCAGGGGGCCACUGCAGAAGCGUUCACGGCGCAGCCCCUGUCAGAUUCUGGUGAAUCUGCGCGUUCUGCUGUAUAACUC has a self-cleavage of 0.08. With UAUCAGGGGGCCACUGCAGAAGCGUUCACGUCGCAGCCCCUGUCAGAUGCUGGUGAAACUGCGAAUUCUGCUGUAUAUCUC the self-cleavage was 0.13. UAUCAGGGGGCCACAGCCGAAGCGUUCACGUCGUGGCCCCUGUCAGAUUCUGGUGAAUCUGCGUAUUCUGCAGUAUAUCUC gave a self-cleavage of 0.11. UAUCAGGGGGCCACAGCCGAAGCGUUCACGUCGCAGCCCCUGCCAGAUUCUGGCGGAUCUGCGAAUUCUGCUGUGUAUCUC showed a self-cleavage of 0.18. For UAUCAGGGGGCCACAGCCGAAGCGUUCACGUCGCAGCCCCUGUCAGAUUCUGGUGAAUCAGCGAAUUCCGCUGUAUAUCUC, the self-cleavage was 0.16. Work on UAUCAGGGGGCCACAGCCGAAGCGUUCACGUCGCAGCCCCUGUCAGAUUCUGGUGAAUCUGCGAAUUCUGCUGGAUAUCUC yielded a self-cleavage of 0.37. In the case of UAUCAGGGGGCCACAGCGGAGGCGUUCACGCCGCAGCCCCUGUCAGAUUCUGGUGAAUCUGCGAAUUCUGCCGUAUAUCUC, the self-cleavage is reported as 0.2. In the case of UAUCAGGGGGCCACAGCGGAAGCGUUCACGUCGCGGCCCAUGUCAGAUUCUGGUGAAUCUGCGAAUUCUGCAGUAUAUCUC, the self-cleavage is reported as 0.07. With UAUCAGGGGGCCACAGCGGAAGCGUUCACGUCGCAGCCCCUGUCAGGUUCUGGUGAAUCUGCGAAUUCUGCUGUAUAUCCC the self-cleavage was 0.85. With UAUCAGGGGGCCACAGCGGAAGCGUUCACGUCGCAGCCCCUGUCAGAUUCUGGUGAAUCUGCGUAUUCCGCUGUAUAUCUC the self-cleavage was 0.14. With UAUCAGGGGGCCACAGCGGAACCGUUCACGUCGCAGCCCCUGUCAGAUUCUGGUGAAUCUGCGAAUUCUGCUGUAUAUCUC the self-cleavage was 0.6. Work on UAUCAGGGGGCCACAGCGGAAGCGCUCACGUCGGAGCCACUGUCAGAUUCUGGUGAAUCUGCGAAUUCUGCUGUAUAUCUC yielded a self-cleavage of 0.13. Work on UAUCAGGGGGCCACAGCGGAAGCGCUCACGUCGCAGCCCCUGUCAGAUUCAGGUGAAUCUGCGAAAUCUGCUGUAUAUCCC yielded a self-cleavage of 0.22. With UAUCAGGGGGCCACAGCGGAAGCGUUCACGUCGCAGCCCCUGUCAGAUUCUGGUGAAUCCGCGAAUUCUGCUGUAUAUCUC the self-cleavage was 0.21. With UAUCAGGGGGCCACAGCGGAAGCGUUCACGUCGCAGCCCCUGUCAGAUUCUGGUGAAUCUGCGAAUUCUGCUGUAUAUCAC the self-cleavage was 1.07. In the case of UAUCAGGGGGCCACAGCUGUAGCGUUCACGUCGCGGCCCCUGUCAGAUACUGGCGAAUCUGCGAAUUCUGCUGUAUAUCUC, the self-cleavage is reported as 0.19. Work on UAUCAGGGGGCCACAGCUGAAGCGUUCACGUCGCAGCCCCUGUCAGAUUCUGGUGAGUCUGCGAACUCUGCUGUAUAUCAC yielded a self-cleavage of 0.35. Work on UAUCAGGGGGCCACAGCUGAAGCGUUCACGUUGCAGCCCCUGUCAGAUUCUGGUGAUUCAGCGAAUUCUGCUGUAUAUCUC yielded a self-cleavage of 0.3. Work on UAUCAGGGGGCCACAGCUGAAGCGUUCACGUCGCAGCCCCUGUCAGAUUCUGCUGAAUCAGCGGAUUCUGCUGUAUAUCUC yielded a self-cleavage of 0.41. With UAUCAGGGGGCCACAGCUGAAGCGUACACGACGCAGCCCAUGCCAGAUUCUGGUGAAUCUGCGAAUUCUGCUGUAUAUCUC the self-cleavage was 0.08. With UAUCAGGGGGCCACAGCUGAAGCGUUCACGCCGCAGCCCCUGUCGGAUUCUGGUGAAUCUGCGAAUUCUGCUGUAUAUCUC the self-cleavage was 0.1. For UAUCAGGGGGCCACAGCUGAAGCGUUCACGUCGCAGCCCCUGGCAGAUUCUGGUGAAUCUGCGAAUUCCGCUGUAUAUCUC, the self-cleavage was 0.25. In the case of UAUCAGGGGGCCACAGCUGAAGCGUUCACGUCGCAGCCCCUGUCAGAAUCUGGUGAAUUUGCGAAUUCUGCUGUACAUCUC, the self-cleavage is reported as 0.04. UAUCAGGGGGCCACAGCUGAAGCGUUCACGUCGCAGCCCCUGUCAGAUUCUGGUGAAUCUGCGAAUCCUGCUGUGUAUCUC showed a self-cleavage of 0.23. With UAUCAGGGGGCCACAGCUGAAGCGUUCACGUCGCAGCCCCUGUCAGAUUCUGGUGAAUCUGCGAAUCCUGCAGUAUAUCUC the self-cleavage was 0.14. Variant UAUCAGGGGGCCACAGCAGGGGCGUUCUCCUCGCAGCCCCUGUCAGAUUCUGGUGAAUCUGCGAAUCCUGCUGUACAUCUC has a self-cleavage of 0.04. UAUCAGGGGGCCACAGCAGGGGCGUUCACCACGCAGCCCCUGUCAGAUUCUGGUGAAUCUGCGAAUCCUGCUGUAUAUCUC showed a self-cleavage of 0.37. In the case of UAUCAGGGGGCCACAGCAGGGGCGUUCACCUCGCAGCCCCUGUCAGAUUCUGGUGAAUCUGCGAAUCCUGCUGCAUAUCUC, the self-cleavage is reported as 0.04. UAUCAGGGGGCCACAGCAGGUGCGUUCACGUCGCAGCCCCUGUCAGAUUCUGGCGAAUCUGCGAAUUCUGCUGUGUAUCUC gave a self-cleavage of 0.25. Work on UAUCAGGGGGCCACAGCAGGAGCGUUCUUGUCGCAGCCCCUGUCAGAUUCUGGUGAAUCUGCGAAUUCUGCUGUAUAUCUC yielded a self-cleavage of 0.58. In the case of UAUCAGGGGGCCACAGCAGGAGCGUUCACGUCGCAGCCCCUGUCGGAUUCUAGUGAAUCUGCGAAUUCUGCUGUAUAUCUC, the self-cleavage is reported as 0.93. UAUCAGGGGGCCACAGCAGGAGCGUUCACGUCGCAGCCCCUGUCGGAUUCCGGCGAAUCUGCGAACUCUGCUGUAUAUCUC showed a self-cleavage of 0.63. For UAUCAGGGGGCCACAGCAGGAGCGUUCACGUCGCAGCCCCUGUCAGGUUCUGGUGAAUCUGCGAAUUCUGCUGUAUAUCUC, the self-cleavage was 0.65. Variant UAUCAGGGGGCCACAGCAGGAGCGUUCACGUCGCAGCCCCUGUCAGGUUCCGGUGAAUCUGCGAUUUCUGCUGUAUAUCUC has a self-cleavage of 0.17. UAUCAGGGGGCCACAGCAGGAGCGUUCACGUCGCAGCUCCUGUCAGAUUCUGGUGAAUCUGCGAAUUCUGCUGUAUAUCUC gave a self-cleavage of 0.14. UAUCAGGGGGCCACAGCAGGAGCGUUCACGUCACAGCCCCUGUCAGAAUCUGGCGAAUCUGCGAUUUCUGCUGUAUAUCUC showed a self-cleavage of 0.08. Work on UAUCAGGGGGCCACAGCAGGAGCGUACCCGUCGCAGCCCCUGUCAGAUUCAGGUGAAUCUGCGAAUGCUGCUGUAUAUCUC yielded a self-cleavage of 0.07. Work on UAUCAGGGGGCCACAGCAGGAGCGUACACGUCGGAGCCCCUGUCAGAUUCUGGUGAAUCUGCGAAUUCAGCCGUAUAUCUC yielded a self-cleavage of 0.08. UAUCAGGGGGCCACAGCAGGAGCGUACACGUCGCAGCCCCUGUCAGAUUCUGGUGAAUCUGCGAAUUCCGCUGUAUAUCCC gave a self-cleavage of 0.25. UAUCAGGGGGCCACAGCAGGAGCGUCCGCGUCGCAGCCCCUGUCAGAUCCUGGUGAAUCUGCGAAUUCUGCUGUAUAUCCC gave a self-cleavage of 0.51. UAUCAGGGGGCCACAGCAGGAGCGUUCACGCCGCAGCCCCUGUCAGAUUCAGGUGAAUCUGCGAAUUCUGCUGUAUAUCCC showed a self-cleavage of 0.34. With UAUCAGGGGGCCACAGCAGGAGCGUUCACGUCGCAGCCCCAGUCAGAUUCUGGUGAAUCUGCGAACUCUGCUGUAUAUCUC the self-cleavage was 0.38.
